Laboratory results published in PubChem BioAssay (NCI).
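Values below derive from 48-hour exposures of cells grown in 96-well plates, with endpoints linearly interpolated between the two concentrations bracketing the appropriate inhibition level. At the GI50, growth is halved. TGI: concentration producing complete growth inhibition.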 Numbered stars: 1 amine (or outer) side, 2 acyl side, 3 side chain; on linkers, the order of the positions; unused ones are H or OH. Square brackets hold non-standard residues; d marks the D form. Peptide text beside a SMILES is read from it. * marks the point of attachment. X9 = C/C=C/CC(C)C(O)[C@H](N[*:1])C(=O)[*:2]; Decanoyl = CCCCCCCCCC(=O)*; Leu(ol) = CC(C)C[C@H](N)CO; Aib = CC(C)(N)C(=O)O

System: NCI-H322M lung
Assay: inhibition of tumour cell growth, NCI panel, 48 h

| Structure (SMILES) | GI50 | TGI |
| --- | --- | --- |
| CN1CCN(Cc2ccc(NC(=O)c3cncc(C#Cc4cnc5ccc(OCCCS(C)(=O)=O)nn45)c3)cc2C(F)(F)F)CC1 | 0.722 µM | 2.81 µM |
| CCc1ccc(SC2c3ccc(N(CC)CC)cc3Oc3nc(N)c(C#N)c(N)c32)cc1 (configuration not stated) | 1.56 µM | 2.91 µM |
| CN1CCN(Cc2ccc(NC(=O)c3cncc(C#Cc4cnc5ccc(N)nn45)c3)cc2C(F)(F)F)CC1 | 1.81 µM | 8.86 µM |
| C/C=C/CC(C)C(O)[C@H](NC(=O)[C@@H]1CCCN1C(=O)C(C)(C)NC(=O)CCCCCCCCC)C(=O)NC(C)(C)C(=O)N[C@@H](CCC(N)=O)C(=O)N[C@H](CCC(N)=O)C(=O)NC(C)(C)C(=O)NC(C)(C)C(=O)N[C@@H](CCC(N)=O)C(=O)N[C@H](CC(C)C)C(=O)N[C@H](CO)CC(C)C (stereo partly drawn) (Decanoyl-[Aib]P[X9][Aib]Q[dQ][Aib][Aib]Q[dL][Leu(ol)]) | 2.05 µM | 5.51 µM |
| CN1CCN(Cc2ccc(NC(=O)c3cncc(C#Cc4cnc5ccc(N6CCOCC6)nn45)c3)cc2C(F)(F)F)CC1 | 0.0865 µM | 0.317 µM |
| CCN1C(=O)N(CC)C2SC(N/N=C/c3cccs3)=NC21 (configuration not stated) | 0.944 µM | > 100 µM |
